# Assay results as given in the supplement of paper PMC3334620.
# The full ranking holds about 33,000 sequences; the median of “E-score (-0.5 to 0.5)” is about -0.035, and the highest 2% start at about 0.34. Some of the results follow.
# Biological target: T1, Mot3 (UniProt P54785)
# T1 sequence: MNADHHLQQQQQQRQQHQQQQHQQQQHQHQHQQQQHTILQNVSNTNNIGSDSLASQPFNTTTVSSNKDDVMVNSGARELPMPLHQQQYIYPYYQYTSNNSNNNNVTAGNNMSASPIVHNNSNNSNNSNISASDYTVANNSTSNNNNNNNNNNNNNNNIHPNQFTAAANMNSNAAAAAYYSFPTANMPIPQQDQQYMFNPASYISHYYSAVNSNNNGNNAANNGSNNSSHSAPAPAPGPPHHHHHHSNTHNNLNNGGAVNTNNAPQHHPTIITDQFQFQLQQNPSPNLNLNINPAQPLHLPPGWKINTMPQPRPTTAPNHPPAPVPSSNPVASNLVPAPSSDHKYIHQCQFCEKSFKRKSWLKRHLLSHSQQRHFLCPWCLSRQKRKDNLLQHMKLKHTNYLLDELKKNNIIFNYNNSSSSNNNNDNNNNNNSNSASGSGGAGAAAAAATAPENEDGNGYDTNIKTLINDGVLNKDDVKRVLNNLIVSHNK
# Assay: PBM E-score (8-mer binding enrichment) (E-score (-0.5 to 0.5)); higher = stronger / more preferred TF binding; most listed sequences are background and not binding sites
# Settings: protein concentration: 200 nM; construct: GST-full length
# Method in brief: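 Yeast transcription factors carrying a GST tag, as full-length proteins or DNA-binding domains, were produced by PURExpress in vitro transcription/translation. About 100-200 nM protein was applied to universal all-10-mer Agilent arrays, double-stranded by primer extension on fresh or once-stripped slides. Bound protein was detected with fluorescent anti-GST, and scans were normalised with masliner. The Universal PBM Analysis Suite gave each ungapped eight-base word, pooled with its reverse complement, an E-score, a modified Wilcoxon-Mann-Whitney statistic.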
row,Sequence,PBM E-score
1,ACATATAG,0.229
2,AAGGAACT,0.416
3,CTCCACCC,-0.349
4,GATTGCAC,0.167
5,CGAATTGA,-0.0841
6,AAGATGGT,0.00507
7,ACAGGACT,-0.129
8,GATAGATA,-0.0809
9,GATCAGGA,-0.216
10,GTCGCTCA,-0.00948
11,AAGGCGGG,-0.112
12,CTCAGCCC,-0.157
13,CATTCTCC,-0.128
14,AGCTACGA,-0.115
15,TCCATCCA,-0.215
16,TCCTTCAA,0.174
17,ACGATGTG,0.169
18,CGCGTGTA,0.375
19,ACGCGTCG,0.137
20,CGATTTTC,-0.0214
21,AGATCTGA,-0.112
22,TCTGTACA,0.235
23,CCTAGTCC,0.0607
24,AGACTTCC,-0.275
25,AGGAATGG,-0.0291

row,Sequence,PBM E-score
1,GATCATAC,-0.182
2,CGACCTAG,-0.142
3,AATACACC,0.271
4,GGCAGACA,-0.0237
5,GCCCCAAA,-0.0143
6,TCGCTTCA,-0.162
7,ATAACGTC,0.0563
8,GCTTGAAA,0.0632
9,GCGCTTCC,-0.0945
10,ACCGCAAG,-0.00025
11,CTTTGTCA,0.167
12,ATGTTCGA,0.0635
13,ATTGACTC,-0.183
14,GCTCGGTA,-0.0408
15,AGCATAAC,0.0259
16,TACGGATA,0.111
17,GTCAGGGA,-0.339
18,ACATGTGA,0.225
19,CTGTTGAC,0.131
20,CAGGGTGG,-0.258
21,ACTTTATA,0.148
22,ATACAAGC,0.262
23,CGACTGGC,-0.0734
24,GATGACCA,-0.0047
25,ATTCTACC,0.0703

row,Sequence,PBM E-score
1,CACATATC,-0.136
2,ATCTGAGA,-0.242
3,CAAAATAA,0.174
4,AGATACGC,-0.0544
5,ACGTCCTC,-0.117
6,GGGGATAC,-0.193
7,CAAGTCAC,0.0603
8,GAGCACCC,-0.331
9,ACAGTTTA,0.129
10,CAGATTTC,0.0166
11,GCGCACAC,-0.197
12,CGCAACGC,-0.0135
13,AACAAACG,0.236
14,GCTTCCTA,0.106
15,AGTCTGGA,-0.0866
16,CCTCGATA,0.0139
17,ATGAAAGC,0.103
18,CAGAGAAC,-0.0721
19,TTAGGGAA,0.0178
20,AGGCACGA,0.491
21,TCTCTACA,0.153
22,GCGGTCCC,-0.298
23,GGCTTTCA,-0.127
24,GTTTCACA,0.181
25,CGTTGGAG,-0.0165

row,Sequence,PBM E-score
1,CGGATTAC,0.151
2,CCTAGAGC,-0.102
3,CACGCCTA,0.0743
4,ACGCACAA,0.164
5,AGTCAAAG,-0.0859
6,AATGAAGG,0.167
7,GCCGCCCA,-0.226
8,GACTGCCA,-0.134
9,ACGTGCCC,0.261
10,CCTCATAC,-0.0676
11,TCAGTAAA,0.0673
12,CTCAAGAC,-0.131
13,ACCTATAG,0.175
14,AGGCCATG,0.043
15,GCAAAAAC,0.146
16,CATCTCCC,-0.294
17,CTCACCCC,-0.244
18,GTTAACTA,0.296
19,CGCCGCGA,-0.186
20,CGTCCCAA,-0.116
21,AACAAACC,-0.0229
22,CGACTGCA,-0.0903
23,AACCGACT,-0.268
24,ACAGATGC,-0.178
25,AGTGACTA,-0.0454

row,Sequence,PBM E-score
1,CCGTCTAA,-0.248
2,CTGTAAGA,0.0865
3,CAGTTCAG,-0.238
4,AAAATTAC,0.23
5,ATGAAAAT,0.0798
6,ATGGCCAC,-0.184
7,TAAGAGGA,-0.0308
8,GTTGAAAA,0.189
9,AAGGCGAG,-0.268
10,ATCGAATA,-0.058
11,AGCTGCCT,0.121
12,TAAATTCA,-0.0653
13,CCACCAGA,-0.121
14,GTACATCA,0.233
15,TCATATAA,0.0305
16,AGCTTTAG,-0.137
17,CCTTGGGC,-0.102
18,CTCTAGAA,-0.173
19,GGGAGAGA,-0.245
20,GTATGCAA,0.0241
21,ATAAACAT,0.225
22,GAATTGGC,-0.258
23,CTGAAGAA,-0.288
24,CTCACCAC,-0.215
25,TAACCTAA,0.155

row,Sequence,PBM E-score
1,AACCGGTA,-0.0951
2,ACCGTGTA,0.397
3,CAATCCAC,0.00999
4,TAAGCTGA,-0.0621
5,ACGTCGAG,0.0267
6,GAACGTGC,0.119
7,GAGAGTGC,-0.0903
8,ATATGAGA,0.0438
9,CCCATTAG,-0.216
10,ACTAATTG,-0.0933
11,GGCAAACA,0.28
12,CCAGATCC,-0.247
13,CGTGCAAA,0.0889
14,GTCGAAGA,-0.0789
15,GGGCACAA,0.0559
16,ACGGTCCG,-0.126
17,GCGTGTAA,0.431
18,AACAACTC,0.00691
19,CGCCCTAC,0.0146
20,CGTAGACG,0.0471
21,CGACGTAC,0.131
22,CTAGTAAG,0.00559
23,CTTGAGTA,-0.0441
24,ACAGAAGG,0.0393
25,ATCTAATC,-0.0218

row,Sequence,PBM E-score
1,AGATCATC,0.12
2,CAGGCAGC,0.312
3,ACGCTACT,-0.0607
4,ATTTATAA,0.146
5,AGAGCTAA,-0.111
6,ACGAAGAG,0.0579
7,ACCCAACA,-0.00542
8,CTTGATTC,0.023
9,CCGGATGC,-0.24
10,AAGGAGAA,0.00568
11,ATAGTTGA,0.0134
12,ATACTCTG,0.0564
13,ATGCAAGC,-0.131
14,AAGTAGTG,0.12
15,ATTGTTGA,0.189
16,ATAACACA,0.332
17,TATCTAGA,-0.027
18,CTGGCAAC,-0.191
19,AGTCAGAA,-0.253
20,AGTTAGAC,0.0476
21,ATAGATCA,0.104
22,GGTAGCAA,-0.183
23,CGGCACAC,-0.21
24,ACAGCCTG,0.029
25,CATGATGG,-0.00757

row,Sequence,PBM E-score
1,CATATTGC,-0.105
2,CATCGGCC,-0.202
3,AGGTAGCC,0.0625
4,GAAGCAGC,-0.203
5,GGATGAAC,-0.105
6,CCGATCAA,-0.093
7,ACCAAGCG,-0.0737
8,GTCGGCCA,-0.201
9,CCCTAAAA,-0.18
10,GTTTATTA,0.247
11,ACATCCAA,0.0963
12,GTCCTCCA,-0.175
13,ACGGCACA,0.00217
14,AACGGACT,-0.119
15,CCTAGGAG,0.032
16,ATCGGAAG,0.00634
17,TAATAGTA,0.231
18,GGGCGGAA,-0.242
19,CACATTTC,0.139
20,GGTGCCTA,0.492
21,CAATACAA,0.243
22,CAGAGCTA,-0.319
23,AAAAGATT,-0.112
24,CGCACAAG,-0.0503
25,CTCAGTGC,0.0835

row,Sequence,PBM E-score
1,CGGGTACG,-0.276
2,CTTAGCCA,-0.16
3,CATAACTA,0.0106
4,GAGGAGAA,-0.228
5,CAGGGAGC,-0.309
6,CCAATTAG,-0.159
7,ATGGGACC,-0.23
8,CCCCCCAC,-0.38
9,TACATGTA,0.408
10,CCAGACTA,-0.17
11,CTCGGGAA,-0.155
12,CTAGCGCA,-0.0897
13,AGTAACAC,0.174
14,CGGGTGAA,-0.046
15,GGCCGGAC,-0.187
16,GCCAGCTA,-0.0679
17,GAGAGAAA,-0.15
18,CCCGCGCG,-0.226
19,TAACCGTA,0.0494
